The values below come from article PMC6203859, “Non-catalytic signaling by pseudokinase ILK for regulating cell adhesion” (Nature Communications, 2018).

This assay addresses full-length human ILK (C346S; C422S), subunit of the coexpressed IPP complex (human, UniProt Q13418 1-452, C346S | C422S). As to the kind of experiment: SEC; purified IPP complex (coexpressed in E. coli, co-purified by Ni affinity on His6-PINCH-1) on Superose 6 10/300 GL. The note with it: both partners purified.

B1: full-length human PINCH-1 (hexahistidine-tagged), subunit of the coexpressed IPP complex (natural protein)
chain: not shown
With B1, the binding result is given as “binds”.
